Screen size: about 360,000 compounds; about 780 (0.22%) were called active. Inconclusive means that the source gave no clear call. Such entries were picked first, then a sample of the others. Rule as the data show it: active = inhibition above about 8.5% (passing the limit was not always enough); inconclusive = no clear call, values can overlap the other calls.
Test system: Mycobacterium tuberculosis FadD28 fatty-acid-AMP ligase
Test: inhibitors of FadD28 bisubstrate probe binding, primary screen, biochemical, fluorescence polarization, single point (AID 588549)
Conditions: at 12.5 µM, active compounds read high

SMILES	inhibition
O=c1c2c(-c3ccc([N+](=O)[O-])cc3)csc2nc2n1CCC2	inactive: -0.677%
CCC(C)N1C(=O)/C(=C/c2c(NCCCOC(C)C)nc3c(C)cccn3c2=O)SC1=S (stereo not given)	inconclusive: 6.95%
COc1ccc(-c2ccnc3c(C#N)cnn23)cc1	inactive: -1.43%
CCOc1ccc(-n2c(O)c(/C=N/NC(=O)C3COc4ccccc4O3)c3ccccc3c2=O)cc1 (stereo not given)	inconclusive: 8.52%
O=C1C(=O)c2ccccc2-c2ccccc21	inactive: 0.115%
COc1cc(OC)c(C2=NOC(C(=O)Nc3c(C)n(C)n(-c4ccccc4)c3=O)C2)cc1Cl (stereo not given)	inconclusive: 6.38%
CC(=O)c1ccc(Nc2nc(C(N)CCc3ccccc3)cs2)cc1 (stereo not given)	inactive: -4.89%
Cc1ccc(Nc2cc(C)nn2-c2nc(C)cc(C)n2)cc1	inactive: -2.56%
C=CCOc1c(OC)cc(/C=N/Nc2cccc(C(=O)O)c2)c(Br)c1Br	active: 15.6%
COc1cc(O)ccc1C(=O)CCc1ccc(O)cc1	inactive: -1.11%
COc1ccc(S(=O)(=O)N2CCC(C(=O)NCCC(=O)NCc3ccncc3)CC2)cc1	inconclusive: 4.05%
Cc1ccc(/C(=N/Nc2nc3ccccc3s2)C2=C(O)c3ccccc3C2=O)cc1	inconclusive: 3.5%
C/C(=N\Nc1ccc(Cl)c(C(=O)O)c1)c1ccc(Br)s1	inconclusive: 6.18%
COC(=O)[C@H](Cc1ccccc1)NC(=O)NCc1ccc(C)cc1	inconclusive: 12.6%
COC(=O)c1cc2oc(C)cc2n1CC(=O)N(C)c1ccccc1	inconclusive: 17.4%
COc1cc2c(cc1NC(=O)c1ccccc1-c1ccccc1C(=O)O)-c1ccccc1C2	inconclusive: 7.55%
COc1ccc(/C=C2/C(=O)N(Cc3ccco3)C(=O)N(C(C)C)C2=O)cc1	active: 9.5%
CCOC(=O)C1(C)CCN1C(=O)c1ccc2c(c1)CCO2 (stereo not given)	inactive: -3.86%
COc1cc(/C=C2\C(=O)ON=C2c2ccccc2)cc(Br)c1O	inconclusive: 6.17%
Cc1ccc(NC(=O)CN2C(=O)S/C(=C/c3ccc(-c4cc(C(=O)O)ccc4C)o3)C2=O)cc1C	active: 14.4%
CCN(CC)S(=O)(=O)c1cc(C(=O)Nc2cc(Cl)ccc2N2CCN(C)CC2)ccc1Cl	inconclusive: 6.22%
CCOc1ccc(N=Nc2c(C)[nH]n(-c3ccccc3)c2=O)cc1	inconclusive: 3.22%
CC1(C)Oc2cc3oc(-c4cc(O)cc(O)c4)cc3cc2CC1O (stereo not given)	inconclusive: 8.35%
Cn1c(N)c(C(=O)COC(=O)Cc2ccc(Cl)cc2)c(=O)n(C)c1=O	inactive: -3.69%
Nc1ccc2nc(-c3cc(Cl)c(N)c(Cl)c3)[nH]c2c1	inconclusive: 4.88%
COC(=O)c1ccc(OCC2NCCc3cc(OC)c(OC)cc32)cc1 (stereo not given)	inactive: 0.331%
CC(C)(C)NC(=O)Cn1nnc(-c2ccccc2Cl)n1	inconclusive: 51.6%
COc1ccccc1CO/N=C/NC(=O)c1c(OC)ccnc1Oc1ccc(F)cc1	inconclusive: 13.6%

SMILES	inhibition
COc1cc(Cl)ccc1NC(=O)COc1ccccc1C(=O)N1CCN(c2ccc(O)cc2)CC1	inconclusive: 7.69%
Cc1oc(/C=N/NS(=O)(=O)c2ccccc2)cc1Br	inconclusive: 8.15%
COC(=O)c1cnn(-c2nc(-c3ccccc3)cs2)c1N	inactive: -1.15%
CCCN=C(C)c1c(-c2ccccc2)[nH]n(-c2nc3ccccc3s2)c1=O	inactive: -4.36%
O=C(N/N=C/c1cc(Br)c(O)c(Br)c1O)c1ccc2c(c1)OCCO2	active: 12.4%
COc1cc(F)ccc1-c1csc(C(NC(C)=O)c2cccc(F)c2)n1 (stereo not given)	inactive: -2.7%
O=C(c1cc2c(s1)-c1ccccc1OC2)N1CCN(c2ccccc2)CC1	inactive: -0.144%
O=C1NC(=O)N(CCc2ccc(F)cc2)C(=O)/C1=C/c1cccs1	inactive: 0.0135%
COc1cc(OC)c(OC)cc1/C=C/c1cc(C(=O)O)c2ccccc2n1	inactive: 0.625%
Cc1cc(C(F)(F)F)c2c(n1)sc1c(O)cc(=O)[nH]c12	inactive: 0.097%
N#Cc1c(NC(=O)c2cccc(S(=O)(=O)Nc3ccc(C(=O)O)cc3)c2)sc2c1CCCC2	inconclusive: 6.46%
COc1ccc2c(CC(=O)N[C@@H](Cc3ccccc3)C(=O)O)cc(=O)oc2c1	inactive: 0.447%
S=c1nc[nH]c2c1sc1nc(-c3ccccc3)c3c(c12)CCCC3	active: 15.2%
O=C(NN=Cc1cc(Br)c(O)c(Br)c1)c1ccccc1NS(=O)(=O)c1cccs1	inconclusive: 5.87%
COc1cccc(NC(=O)Nc2nc(SC(C)(C)C)ns2)c1	active: 21.4%
COCCNC(=O)C1CCC(CNS(=O)(=O)c2ccc3c(c2)CC(C)N3C(=O)C2CC2)CC1 (stereo not given)	inconclusive: 4.3%
CCOc1ccc2nc(N=Nc3c(O)[nH]c(=S)[nH]c3=O)sc2c1	inconclusive: 7.14%
CCCCCCCCCCCCCCCC[n+]1cccc2ccccc21	active: 16.6%
c1ccc(CSc2nnc(-c3ccco3)c(-c3ccco3)n2)cc1	inconclusive: 7.93%
Cc1occc1C(=O)Nc1cccc(Cl)c1Cl	inactive: -0.859%
C=CCC12C=C(OC)C(=O)OC(OC)(C1O)[C@H](c1ccc3c(c1)OCO3)[C@H]2C (stereo not given in full)	inconclusive: 7.41%
O=C(COC(=O)c1ccccc1NC(=O)c1ccco1)Nc1ncc(Cl)cc1Cl	inconclusive: 3.98%
CN(C)C/C=C/C(=O)Nc1cccc(-c2c[nH]c3ncnc(Oc4ccc(NC(=O)CC(=O)Nc5ccc(F)cc5)cc4F)c23)c1	active: 18.6%
O=C(COC(=O)c1nc(Cl)ccc1Cl)NCc1ccccc1	inconclusive: 2.93%
CN(c1ccc(C(=O)NCCSCc2ccccc2)cc1)S(=O)(=O)c1ccccc1	inconclusive: 6.32%
COc1ccccc1CNS(=O)(=O)c1c(C)nc2scc(C)n2c1=O	inactive: -0.547%
CC(=O)Nc1ccc(N=C(C2=C(O)c3ccccc3C2=O)c2ccccc2)cc1	active: 13.6%
